Results on 86 sequences are retold here after the supplement of paper PMC3334620.

The full ranking holds about 33,000 sequences; the median of “E-score (-0.5 to 0.5)” is about -0.011, and the highest 2% start at about 0.28. Some of the results follow.

This test addresses T1, Gcr1 (UniProt P07261).
T1 sequence: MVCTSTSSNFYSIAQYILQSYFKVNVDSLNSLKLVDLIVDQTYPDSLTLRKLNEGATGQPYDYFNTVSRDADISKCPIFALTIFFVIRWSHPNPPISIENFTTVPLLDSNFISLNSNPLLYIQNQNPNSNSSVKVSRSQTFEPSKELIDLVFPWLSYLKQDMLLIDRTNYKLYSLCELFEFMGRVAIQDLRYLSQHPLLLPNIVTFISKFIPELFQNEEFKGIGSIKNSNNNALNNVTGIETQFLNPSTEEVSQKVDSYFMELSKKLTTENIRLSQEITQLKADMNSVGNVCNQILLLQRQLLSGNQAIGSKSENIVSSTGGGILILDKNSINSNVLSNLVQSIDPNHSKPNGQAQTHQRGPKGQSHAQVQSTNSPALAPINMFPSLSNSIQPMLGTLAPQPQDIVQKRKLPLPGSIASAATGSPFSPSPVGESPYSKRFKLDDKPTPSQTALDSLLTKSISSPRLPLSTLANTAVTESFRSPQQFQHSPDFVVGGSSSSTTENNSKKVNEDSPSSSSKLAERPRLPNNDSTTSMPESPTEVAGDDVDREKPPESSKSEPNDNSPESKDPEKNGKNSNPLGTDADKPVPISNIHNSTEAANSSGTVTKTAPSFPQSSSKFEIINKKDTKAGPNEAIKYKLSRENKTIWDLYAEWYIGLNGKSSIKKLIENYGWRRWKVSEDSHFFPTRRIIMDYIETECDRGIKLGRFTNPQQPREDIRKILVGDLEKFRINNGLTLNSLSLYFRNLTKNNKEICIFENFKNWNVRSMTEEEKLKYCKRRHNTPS
Briefly: PBM E-score (8-mer binding enrichment) (E-score (-0.5 to 0.5)); higher = stronger / more preferred TF binding; most listed sequences are background and not binding sites. The settings on record: protein concentration: 100 nM; construct: GST-full length. An outline of the steps:
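Bound GST-tagged yeast transcription factors, applied at about 100-200 nM to double-stranded universal all-10-mer Agilent arrays, were detected with fluorescent anti-GST. Scans were normalised with masliner. A modified Wilcoxon-Mann-Whitney statistic, the E-score, was assigned to each ungapped eight-base word pooled with its reverse complement by the Universal PBM Analysis Suite.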
With CAGACTTA, the “PBM E-score” value is -0.22.
Then GCTACAGA, with -0.0121.
The value for CCTGACCA was -0.0197.
Take CGCGGTAG: the “PBM E-score” value is -0.0858.
On to GAACTGCA, for which the “PBM E-score” value was -0.0546.
The value for GATATCAA was 0.0419; that for CAAGACTA was 0.046.
As to CATGGGAG, the “PBM E-score” value was determined as 0.174.
On to TGTGGCAA, for which the “PBM E-score” value amounted to 0.0518.
For GACTCCAA, the “PBM E-score” value was 0.18.
As for GCGACAAA, the “PBM E-score” value was determined as 0.209.
The value for ACACTGAA was 0.125.
Then ATCTCAAA, with 0.13; and ATACCTCC, with -0.111.
Regarding ACGCTCCA, the “PBM E-score” value was -0.176.
Then ACCTCCCC, with 0.00443.
Then CCCGCCCG, with 0.123.
The value for GCGGTAAA was 0.0323; that for ACAGGATA was 0.177.
TCATACCA: the “PBM E-score” value is -0.207.
For AGATTGAA, the “PBM E-score” value was -0.0596.
For TCTCCGAA, the “PBM E-score” value was -0.134.
Then AACATACC, with -0.0923; and CTAATTGA, with 0.121.
Consider CCACAATA, for which the “PBM E-score” value worked out at 0.3.
The value for AATGGCTC was 0.104; that for CGTAGGCA was -0.158.
The value for ATTGTCTA was 0.00429.
The value for ATCTGATA was -0.0264; that for GCAATCGC was -0.113.
Take CCTAACTC: the “PBM E-score” value was found to be 0.00256.
For the sequence CAAACGTC, the “PBM E-score” value is -0.0326.
Then CTCTGCCA, with -0.17; and GCATACCC, with -0.0102; and CTCGGACA, with -0.147.
On to ATATTAAC, for which the “PBM E-score” value stood at 0.232.
Then ATAACAAC, with 0.0852; and GCTCGTTA, with -0.266.
Then ACTGCCGG, with 0.00898; and AAAGTATC, with 0.0341; and ATAAACCA, with -0.204.
Then ATCGCCTC, with 0.0027.
As to AGCATTAC, the “PBM E-score” value amounted to 0.0568.
In the case of ACTACTGA, the “PBM E-score” value is -0.188.
Take GAAGGTGA: the “PBM E-score” value amounted to 0.0876.
The value for AAAACTTC was 0.0926; that for GGGATGAA was -0.207; that for AGTGCTTC was -0.0411.
Then CATTTCAA, with 0.0908.
With GAGGCATA, the “PBM E-score” value stood at 0.0209.
On to GCTGGAAA, for which the “PBM E-score” value is 0.107.
As to CTCGGCCC, the “PBM E-score” value is -0.242.
As to CTCCGATC, the “PBM E-score” value is -0.00026.
As to ACTCACAG, the “PBM E-score” value is -0.121.
Then AGGAATAG, with -0.131; and AATCTCCG, with -0.0956.
Then TGCCTGAA, with 0.0285.
The value for ACCTACGC was -0.143; that for AAGGCCGA was -0.221; that for AAACGATC was -0.189.
Take GAATAGGC: the “PBM E-score” value is 0.0784.
On to CGGCCTCC, for which the “PBM E-score” value was 0.165.
Then AGCTGACC, with -0.0744.
CGCGAACG: the “PBM E-score” value was -0.0508.
The value for CAGTCTCA was 0.0106.
Consider ATGCCAGC, for which the “PBM E-score” value came to 0.011.
Then GGGATCCC, with 0.419; and AGCATGAT, with 0.0033; and AGGGCACA, with -0.184.
As for GATCCTCA, the “PBM E-score” value is 0.0615.
The value for AGACGTAG was 0.143; that for ATGGACGC was 0.262; that for AGTAACAT was 0.0315.
For AGGAATAA, the “PBM E-score” value was -0.0706.
Then ACAAATCT, with 0.22; and ATACCATG, with 0.084.
With ACCTAAGA, the “PBM E-score” value is 0.239.
The value for CCGATTTA was 0.194; that for GATGCGAA was 0.126; that for ATGTATCC was 0.12.
Then GCACAATA, with -0.202.
As for ATTGGAAG, the “PBM E-score” value is 0.363.
Take ACCCTGCC: the “PBM E-score” value is -0.0994.
Then GGCTCGCA, with -0.137; and CTGGTGAC, with -0.0303.
The value for GGAAAGCA was -0.17.
